According to the supplement of paper PMC11181314:
The list shows a part of the results. Single values of this set are uncertain.

Test system: U2OS
Test: Cell Painting induction (percent of morphological features significantly changed vs DMSO); higher = stronger morphological change
Conditions: 10 µM, 20 h
Procedure: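 Cell Painting assay in U2OS cells: compounds at 10 µM for 20 h, six dyes, 579 robust CellProfiler features as Z-scores vs DMSO median (MAD). Induction is the % of significantly changed features (active if ≥5%); relative cell count is in % of DMSO. The primary run holds DCM compounds preselected for induction ≥10%; the confirmation repeat defines active compounds (370 of 549). Replicate agreement is low, attributed to precipitation.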

[1] = run: primary screen (compounds selected for induction >=10%)
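Also: stains mark DNA, RNA and nucleoli, ER, actin, Golgi, plasma membrane and mitochondria, read by high-content imaging, with DMSO controls at matching solvent concentration.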

Row | Compound | Cell Painting induction (run: confirmation repeat) | Cell Painting induction [1]
1 | COc1ccc(CN2CCN(Cc3c[nH]c4ccccc34)CC2)cc1OC | active: 18.5% | 18.7%
2 | CCOC(=O)c1cnc2c(C)cccc2c1Nc1ccc(N2CCOCC2)cc1 | inactive: 4.5% | 10%
3 | CCOc1cc2c(cc1OCC)C(c1ccc(C(F)(F)F)cc1)CC(=O)N2 (stereo unspecified) | active: 11.2% | 13.5%
4 | CC(C)(C)OC(=O)N1CCC(c2c(C(=O)N3CCN(C4CCCCC4)CC3)cnn2-c2ccc(F)cc2)CC1 | inactive: 1.2% | 19.5%
5 | CCOc1ccc(NC(=S)NCCN2CCN(Cc3ccccc3)CC2)cc1 | active: 24% | 38.9%
6 | COc1ccc(OC)c(CCNC(=O)CN2C(=O)COc3ccc(S(=O)(=O)N4CCOCC4)cc32)c1 | inactive: 2.4% | 12.1%
7 | Cc1ccc(-c2nc(C3CCCN(S(=O)(=O)c4ccc(C(C)(C)C)cc4)C3)no2)cc1 (stereo unspecified) | inactive: 0.3% | 58.4%
8 | CCOc1ccc(NC(=S)N(CCc2c(C)[nH]c3ccccc23)Cc2ccco2)cc1 | active: 10.7% | 20.4%
9 | CCCCN(CCCC)CCCNC(=O)c1ccc2nc(-c3ccccc3NC(C)=O)c(O)nc2c1 | active: 30.2% | 17.6%
10 | COc1ccc(-n2nnc3c(=O)n(Cc4ccccc4C)cnc32)cc1 | inactive: 0% | 11.6%
11 | CCOc1cc2[nH]c(=O)n(CCCN3CCN(c4ccc(OC)cc4)CC3)c(=O)c2cc1OCC | active: 17.4% | 33.3%
12 | O=C(Nc1cccc(Cl)c1)c1cnn(-c2ccccc2)c1C1CCNCC1 | active: 39% | 36.1%
13 | CCc1cccc(C)c1NC(=S)N(CCCN1CCN(C)CC1)Cc1cccs1 | active: 22.6% | 17.4%
14 | COc1cccc(C2=CC(c3cccc(OC)c3OC(F)F)n3nnnc3N2)c1 (stereo unspecified) | active: 18.1% | 23.8%
15 | O=C(NCCN1CCN(c2ccccc2)CC1)Nc1cccc(Cl)c1 | active: 51.5% | 43%
16 | COc1ccc(C)cc1NC(=O)CSc1nc2ccccc2nc1N1CCCCC1 | active: 9.2% | 13%
17 | Cc1ccc2nc(-c3cccnc3)cc(C(=O)Nc3ccc(F)cc3C)c2c1 | active: 12.3% | 13.1%
18 | CCOC(Cn1c(SCC(=O)Nc2cc(C)on2)nc2ccccc2c1=O)OCC | inactive: 0.3% | 10.9%
19 | COc1ccc(/C=N/NC(=O)c2cccnc2)cc1CN1CCc2cc(OC)c(OC)cc2C1C (stereo unspecified) | active: 24.7% | 22.8%
20 | CC(C)(C)OC(=O)N1CCC(c2c(C(=O)NCC3CCN(C4CCCC4)C3)cnn2-c2ccccc2)CC1 (stereo unspecified) | active: 49.6% | 43%
21 | CCN(CCCNC(=O)Cn1ncc2c3ccccc3nc-2c1O)Cc1ccccc1 | inactive: 1.4% | 11.1%
22 | COc1cccc(CNS(=O)(=O)c2cc(-c3cc(C)no3)ccc2C(C)C)c1 | active: 40.8% | 35.1%
23 | COc1ccc(N2CCN(CCCNS(=O)(=O)c3ccc4c(c3)oc(=O)n4C)CC2)cc1 | active: 21.1% | 27.8%
24 | CCOc1ccc(NC(=O)CSc2nc3ccccc3nc2N2CC(C)OC(C)C2)cc1 (stereo unspecified) | active: 10.5% | 10.2%
25 | COc1ccc(OC)c(CN2CCN(Cc3ccccc3C(F)(F)F)CC2)c1 | active: 18.5% | 18.3%
26 | O=C(c1ccccc1)c1ccc(N2CCN(C(=O)c3cccc(F)c3F)CC2)c(F)c1 | active: 9.3% | 11.9%

Row | Compound | Cell Painting induction (run: confirmation repeat) | Cell Painting induction [1]
27 | CCOc1ccccc1C(=O)NCCCN1CCN(CCCNC(=O)c2ccccc2OCC)CC1 | active: 31.8% | 38.5%
28 | Cc1ccc(-n2nc(-c3ccc(F)cc3)c3cnc4cc5c(cc4c32)OCCO5)cc1 | inactive: 0.3% | 59.4%
29 | Cc1ccc(OCC(=O)Nc2ccccc2C(N)=O)c(C(C)(C)C)c1 | active: 15.2% | 10.4%
30 | CCC1CCCCN1CCNC(=O)C1CCCN(S(=O)(=O)c2cccc3nsnc23)C1 (stereo unspecified) | active: 5.7% | 11.7%
31 | CCCCN(C(=O)c1cccc(S(=O)(=O)N2CCCCC2)c1)C1CCS(=O)(=O)C1 (stereo unspecified) | active: 8.6% | 15.4%
32 | O=C(NC1CCCCCC1)c1cc(-c2ccccn2)nc2ccccc12 | inactive: 0% | 16.9%
33 | N=c1c(C(=O)NCc2ccc3c(c2)OCO3)cc2c(=O)n3ccccc3nc2n1CC1CCCO1 (stereo unspecified) | active: 5.5% | 11.6%
34 | CCCCCn1c(=O)[nH]c2cc(C(=O)NCCN3CCCCC3C)ccc2c1=O (stereo unspecified) | active: 25.6% | 48%
35 | c1ccc(Nc2nc(NCCN3CCOCC3)nc(Nc3ccccc3)n2)cc1 | active: 24.4% | 44%
36 | COc1ccccc1NC(=O)c1cnn(-c2cccc(C)c2)c1C1CCNCC1 | active: 22.6% | 17.4%
37 | CC(=O)c1ccc(N2CCN(C(=O)Nc3ccc(F)cc3)CC2)cc1 | active: 5.4% | 10.4%
38 | CC(=O)c1ccc(N2CCN(S(=O)(=O)c3ccccc3)CC2)c(F)c1 | active: 11.7% | 14%
39 | CCC1CCCCN1CCCNC(=O)C1CCCN(c2ncnc3c2nc2n3CCCCC2)C1 (stereo unspecified) | inactive: 4.5% | 15.5%
40 | O=C(NCCN1CCN(C(=O)c2cccc(Br)c2)CC1)C(=O)Nc1ccc(Br)cc1 | active: 24.5% | 33.3%
41 | COc1ccc(OCC(=O)Nc2c(C(=O)N3CCC(N4CCCCC4)CC3)oc3ccccc23)cc1 | active: 48.7% | 38%
42 | CCCC(=O)c1ccc(N2CCN(S(=O)(=O)c3ccc(C)cc3)CC2)c(F)c1 | inactive: 0.9% | 19%
43 | CCOc1ccccc1N(C)C(=O)Cn1ncc2c3cc(C)ccc3nc-2c1O | active: 50.3% | 58.9%
44 | Cc1cccc(/C=C2\Sc3ccc(C(=O)N4CCOCC4)cc3N(C)C2=O)c1 | active: 31.3% | 17.6%
45 | Cc1c(/C=N/N=C2\CCC3C4CCc5cc(O)ccc5C4CCC23C)cnn1C (stereo unspecified) | inactive: 3.8% | 17.6%
46 | CCn1c(C)c(C)c2cc(C(=O)NCCCN3CCN(C)CC3)ccc21 | active: 7.3% | 10.2%
47 | C/N=C1\SC(C(=O)Nc2ccccc2Cl)CC(=O)N1c1ccc(OC(F)(F)Cl)cc1 (stereo unspecified) | inactive: 1.7% | 21.1%
48 | Cc1nn2c(Nc3ccc(F)cc3)c3c(nc2c1-c1ccccc1)CCC3 | inactive: 1.7% | 20%
49 | Cc1ccc(N(CC(=O)NCCSc2ccccn2)S(=O)(=O)c2ccc(F)cc2)cc1 | inactive: 1.7% | 13%
50 | COc1ccc(N(CC(=O)N2CCN(c3cc(C)ccc3C)CC2)S(=O)(=O)c2c(C)noc2C)cc1 | inactive: 2.4% | 53%
51 | CCN(CC)c1ccc(NC(=O)CN2CCN(CC(=O)Nc3ccc(OC)cc3)CC2)cc1 | active: 28% | 35.8%
52 | O=C(c1ccc(Cn2c(=S)[nH]c3cc4c(cc3c2=O)OCO4)cc1)N1CCN(c2ccccc2)CC1 | active: 47.8% | 29.7%

Row | Compound | Cell Painting induction (run: confirmation repeat) | Cell Painting induction [1]
53 | COC(=O)C1=C(CSCc2ccccc2)NC(=O)NC1c1cc(C)ccc1C (stereo unspecified) | active: 6.9% | 11.6%
54 | COc1ccccc1N1CCN(C(CNS(=O)(=O)c2ccccc2)c2ccccc2)CC1 (stereo unspecified) | active: 24.4% | 31.3%
55 | CCOc1ccc(N(CC)C(=O)c2nn(-c3ccc(OC)cc3)c(=O)c3c2c2ccccc2n3C)cc1 | active: 37% | 15.4%
56 | CCC(=O)N1CCc2cc(S(=O)(=O)N3CCN(c4cccc(C)c4)C(C)C3)ccc21 (stereo unspecified) | inactive: 1.9% | 10.7%
57 | CCOc1ccc(S(=O)(=O)NCc2cccnc2)cc1NC(=O)c1ccccc1 | active: 27.5% | 34.5%
58 | COc1cc(NC(=S)NC2CC(C)(C)NC(C)(C)C2)c(OC)cc1Cl | active: 36.3% | 38.3%
59 | C=CCn1cc(C(=O)NCCN(CC)CC)c(=O)c2cc(S(=O)(=O)N3CCCCCC3)ccc21 | active: 23.7% | 38.3%
60 | CN(CC(=O)NCCN1CCN(Cc2ccccc2)CC1)S(=O)(=O)c1cccc2nsnc12 | inactive: 1.4% | 29%
61 | C=CCn1c(SCC(=O)N2CCC(C)CC2)nc2c3ccccc3nc-2c1O | active: 7.1% | 12.6%
62 | CCOc1ccc(C(=O)Cc2cc3cccc(OC)c3oc2=O)cc1 | inactive: 4.8% | 11.4%
63 | COc1ccc(C2=C(Nc3ccccc3)c3ccccc3C2=O)cc1 | active: 13.1% | 11.1%
64 | CCC1CCCCN1CCCNC(=O)c1ccc(CS(=O)(=O)Cc2ccc(Cl)cc2)o1 (stereo unspecified) | active: 8.1% | 13.8%
65 | Cc1ccc(-c2nc(CS(=O)(=O)CC(=O)NCCCN(Cc3ccccc3)C(C)C)c(C)o2)cc1 | active: 37.5% | 43.9%
66 | Cc1nn2c(N3CCOCC3)cc(C(C)(C)C)nc2c1-c1ccc(Cl)cc1 | inactive: 0.7% | 16.8%
67 | CCC1CCCCN1CCCNC(=O)c1csc2c1CCCCC2 (stereo unspecified) | active: 6.4% | 14.3%
68 | COc1ccc(CNC(=O)c2cc3cc(OC)ccc3oc2=O)cc1 | active: 37% | 31.4%
69 | O=C(N/N=C/c1cccnc1)c1ccccc1OCc1cccc(Br)c1 | active: 19% | 15.7%
70 | O=C(NCCc1ccc(Cl)cc1)c1cc(S(=O)(=O)N2CCCCC2)c[nH]1 | inactive: 4% | 12.4%
71 | CC(C)N(CCCNC(=O)C1CCN(C(=O)c2cc3sccc3n2C)CC1)Cc1ccccc1 | active: 22.8% | 28.8%
72 | COc1ccc(C(=O)NCC2(c3ccc(OC)c(OC)c3)CCCC2)c(OC)c1 | inactive: 2.2% | 13.8%
73 | Cc1ccccc1CS(=O)(=O)CCC(=O)NCCCN1CCN(c2ccccc2F)CC1 | active: 7.3% | 27.3%
74 | COc1ccccc1N1CCN(S(=O)(=O)CCNC(=O)c2cc(OC)c(OC)c(OC)c2)CC1 | active: 32.5% | 41.5%
75 | CC(C)C(=O)NC(c1ccc(N(C)C)cc1)c1c(O)ccc2ccccc12 (stereo unspecified) | active: 5.2% | 20.2%
76 | COc1ccc(/C=C2/Sc3ccc(C(=O)N4CCOCC4)cc3NC2=O)cc1OC | active: 45.1% | 41.8%
77 | O=c1c2ccccc2nc(CSc2nnnn2-c2ccccc2)n1-c1cccc(C(F)(F)F)c1 | inactive: 0.7% | 13.8%
78 | CCN1CCN(c2cc(C)c3cc(NC(=O)CCC(=O)Nc4ccc(OC)c(OC)c4)ccc3n2)CC1 | active: 27.5% | 58.9%
